Measured values as given in the supplement of paper PMC11417369.
± gives the standard deviation of the averaged measurements. The list shows a part of the results.

tested on: PfAP2-I AP2 domain 3 (GST-tagged); assay: gcPBM binding intensity (ln(normalized median fluorescence intensity)); higher = stronger DNA binding
Method in brief: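 The binding buffer was 1× PBS containing 1% milk, 0.2 mg/ml BSA, 0.5% salmon testes DNA and 0.03% Triton X-100. In it, GST-tagged P. falciparum DNA-binding domains expressed in E. coli were applied for 1 h to an Agilent 4 × 180k array of primer-extended double-stranded 36-bp intergenic genomic probes plus negative controls. Binding intensity, read with Alexa488 anti-GST antibody and a 488 nm scan, is the highest Masliner-normalised natural-log median intensity across replicate spots of either probe orientation.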

Sequence | gcPBM binding intensity (ln)
AAAAAAATTTTTAAAAGTACATTAATATTAATATGT [XGTACX_site5177] | 7.84 ± 0.56
ACATTACAATTATTATAATCAATATATAACCTCTAA [TGCATGCA_negctrl_site105] | 7.88 ± 0.42
ATAAAATTATATACTCGTACACAAAAAAAAAAAATA [XGTACX_site6035] | 7.96 ± 0.23
AAATATATTTTTTTTTGTACTCAAAAAGAAAAAAAA [XGTACX_site8540] | 7.59 ± 0.43
AAAAATTGAATGATGTGTACTTAAAAGAATATAGAA [XGTACX_site6588] | 8.05 ± 0.51
AATTTTCATTTTAGAAGTACACACAAAAAATAAAAT [XGTACX_site4426] | 8.13 ± 0.22
ATTATATTTCAATTATGTACATATAAAATGAATAAA [XGTACX_site4204] | 7.78 ± 0.37
TTTTTTTTTTTTTTTTTTTTCTTCATTTAATTTATA [GTGCAC_negctrl_site17] | 8.1 ± 0.73
TTTTTTTATTATTATTGTACAAGGCCTTAGGTGATT [XGTACX_site5050] | 7.99 ± 0.46
TTTTCATGTTTTTTTCTTTATTTTTTTTTTTTTTTT [GTGCAC_negctrl_site511] | 8.3 ± 0.49
TACTTAATTATAAGGACATGCACAAAAGGAATTATT [TGCATGCA_site468] | 8.71 ± 0.72
ATATAATATAACAATACGCACACGTATACAAAAAAA [CACACA_site3151] | 8.36 ± 0.41
ATAAAATGCGCAAACACACACAAAAAAAAGATATAT [CACACA_site6875] | 8.06 ± 0.75
TTTTTAATTAATCTTATAAATATTTATAAATATATA [CACACA_negctrl_site1485] | 7.57 ± 0.53
ATGTAATCATTTTCGACTTTTTTTTTTTTTTTTTTT [CACACA_negctrl_site1132] | 9.19 ± 0.26
AGGAAATGTTTATATACATGCATAATTAAATATAAT [TGCATGCA_site672] | 7.76 ± 0.67
GTTGTAAAAAGAAAATGTACGTAATAAATATATATA [XGTACX_site3081] | 8.29 ± 0.64
AATAAAAAAAAAAATAATATATATGTATAAATATAT [CACACA_negctrl_site1561] | 7.39 ± 0.35
AATACTCCATTGTATAGTACATATATTTTTATTTAT [XGTACX_site3641] | 7.59 ± 0.53
TATTTTTATTTATATACACACTTACATATTTATATT [CACACA_site7666] | 7.95 ± 0.59
AGAATTTATAAAAACTGTACATATTTTCCAGTTATA [XGTACX_site2848] | 7.58 ± 0.4
TAATGTACTTAAACCGCACACATATAAAAAAATAAA [CACACA_site8926] | 8.46 ± 0.014

Sequence | gcPBM binding intensity (ln)
TTATTTTAATTTTTGGTGCATATTCAAGTGTACCTT [GTGCAC_site9791] | 10.4 ± 0.47
TATTTACATATTTATATACACACTTTTGCGTGTCTG [CACACA_site1110] | 7.78 ± 0.42
ATAAATAATATAAATACACACTAAAAAAGATATATA [CACACA_site6397] | 7.54 ± 0.5
AAATAAAATACAATATGATAAAATGTTATCATATAT [CACACA_negctrl_site538] | 7.32 ± 0.45
AATAAAAGGAATAATTGTACATAATGATTATACGTT [XGTACX_site7548] | 7.59 ± 0.68
TATTTTTTATAATAATGTACATATATATATATAATA [XGTACX_site2329] | 7.84 ± 0.19
AATATCATATAAAAATGTACAAATTCTAAAACACGA [XGTACX_site1442] | 7.97 ± 0.56
ATGTATGTGTAACATAGTACTTTTTAAAAGGATATT [XGTACX_site5328] | 7.96 ± 0.61
TATAGATACATATACACACACACACCCACATATATA [CACACA_site3436] | 8.09 ± 0.042
ATCAAACCTTTTAAATGTACATTCGGAGTAAAAAAA [XGTACX_site282] | 7.83 ± 0.74
GTATTCATGCTAAAGGTGCAATAATTTTTATAATAA [GTGCAC_site9603] | 11.5 ± 0.61
AAGATAAAATTATGTAGTACAAAAAAAAATAAAAAA [XGTACX_site139] | 7.96 ± 0.54
CGCCTATAAGCTTAGACACACAAATAAATAAATATA [CACACA_site1264] | 7.45 ± 0.35
TTAAAAATGTTGGAAAGTACATATTTTTTAAAAGTA [XGTACX_site802] | 7.66 ± 0.46
TACCTAATTCGGTCCCGTACAAGTTAGTTTCAATTC [XGTACX_site2703] | 7.32 ± 0.62
TATTGGGGGTATAAACACAGTAAGTAAATAAATAAA [CACACA_negctrl_site1680] | 9.01 ± 0.12
AAAAAAAAAAAAAAGAGTACACAGACGTTCAAAGGT [XGTACX_site7566] | 8.47 ± 0.31
TGTATGTATTAATGCGCACACAAAAAATAACAATAT [CACACA_site1848] | 9.29 ± 0.19
ATATATATATATAAATGTACATTGTGTGTTGTAAGA [XGTACX_site2434] | 9.29 ± 0.47
ATAAAAAAAAAATAATGTACTTATATATATATATAT [XGTACX_site8282] | 9.45 ± 0.29
ATATAGATATATAGTAGTACTTGTTATATAAGATAA [XGTACX_site6336] | 7.67 ± 0.47
ACAGAGCTTTAAATACGTACATAATATATATTAAAT [XGTACX_site8221] | 7.76 ± 0.46

Sequence | gcPBM binding intensity (ln)
TATTGATTTAGAAACACACACTCGAAGATGTTTAAC [CACACA_site1129] | 7.58 ± 0.53
TTTAAAAAATGTTATATTATATAATTAAAAAAAAAA [CACACA_negctrl_site1509] | 7.43 ± 0.79
GTATATTATTTACGTTTGCACTTCATTTTATAGTAA | 9.18 ± 0.35
TATTAATTGTGGCACCTTGTATGTTTACAATGACAT [CACACA_negctrl_site1383] | 10.34 ± 0.078
TTCTTCAAAAAAAATTGTACACATCTCTCAAATGTT [XGTACX_site2952] | 7.67 ± 0.53
AATGGATGAATGAATGTATGAATGAATGTATGAATG [CACACA_negctrl_site91] | 7.88 ± 0.84
ATATATATAAAACACACACACAAAAAAAATAAAGAC [CACACA_site117] | 8.6 ± 0.57
TTTTGTAGTTTATAAATAAAAGAGAATATGGTGCTT [CACACA_negctrl_site413] | 7.93 ± 0.57
TAAATATTATTTCATAGTACTTTTATTATTGATATA [XGTACX_site5566] | 7.76 ± 0.14
TAAATAAATATATATACACACATATATATATATATA [CACACA_site598] | 9.23 ± 0.48
CAATTTATAAAGAAAACACACATATACATATATACA [CACACA_site1260] | 7.6 ± 0.4
TATTAAACAAATTATGCAAAAATAAATCAATATGTT [CACACA_negctrl_site171] | 8.12 ± 0.64
TTAGGAAGCTCACAAAATAAAGTGAAAAGAAGAAAA [XGTACX_negctrl_site572] | 7.62 ± 0.87
ATTATTTTATAATTCACACATAAATAAAAAAAAAAT [CACACA_site5290] | 7.76 ± 0.32
TGATTTCCAGGTTATTGTACAAAATTAATTTTCGAA [XGTACX_site2491] | 7.86 ± 0.59
AAAAGTTTTATTTAAATGAATTAATCTTTACTATAT [CACACA_negctrl_site282] | 7.23 ± 0.54
TATTTTCATTTGCGCGCACACAATAATAATTTTTGG [CACACA_site3525] | 8.59 ± 0.45
TAAAAAATATAAATGACACACACTTAAAAACAAAGA [CACACA_site671] | 7.86 ± 0.72
TATAAATTAATGACATGTACATAAAAGTATAGATGT [XGTACX_site6534] | 7.96 ± 0.45
AACAATTATTTATCTACACACTTTTATGTTATTTAC [CACACA_site9] | 7.88 ± 0.67
AAATATACAAAATATACACACATATTTATTTATGAT [CACACA_site2051] | 7.44 ± 0.59
AAAATTAAAATATATACACACATATATATATTAAAT [CACACA_site4419] | 7.42 ± 0.39

Sequence | gcPBM binding intensity (ln)
TCTTCCCAAATAAAGTGTACATAAATACGAATAATA [XGTACX_site4363] | 7.91 ± 0.36
TAATGTATATGTAAATGTACATGTATATTATTTAAA [XGTACX_site1840] | 7.64 ± 0.24
AAGATATTTGTATAATGTACAAAACTATATAAAACT [XGTACX_site1433] | 7.79 ± 0.69
ATCAAAGATAAATTTACACACATATATATATATATA [CACACA_site2969] | 9.3 ± 0.26
TTGTTCCACAAAAATTTAGTCAAAAAAAAATAAAAA [TGCATGCA_negctrl_site546] | 7.46 ± 0.61
AATGAATAACAATACTATATGATTTTTAATACATTA [XGTACX_negctrl_site42] | 7.13 ± 0.52
ACAAAAAAAAAAATAACACACATGGGGGTGTATAAA [CACACA_site3797] | 8.68 ± 0.11
TTAAATTTTTTTTTGTGTACGAAAAACAGAAAAAAT [XGTACX_site8625] | 8.18 ± 0.25
ATATATATATACATATGTACATATAAAATAATTTTG [XGTACX_site3731] | 9.03 ± 0.25
TATGTGTATGGGAATGCATGTAAATATGTACATATA [TGCATGCA_site737] | 8.28 ± 0.12
TCTATTCATTTTGAAGGTACACATTTCTTTATAATA [XGTACX_site6218] | 7.68 ± 0.49
GTATTAGATAAATACACACACAAGCATATATTTTTA [CACACA_site3431] | 7.61 ± 0.52
AATAAATATATAAATACACACAAACATACATATATA [CACACA_site9340] | 7.71 ± 0.36
AATATATCATTATATAAACACACAATATGTTTTTTA [CACACA_site9260] | 7.51 ± 0.54
AAAAATATATATATATATATATATATAAGGAATATA [XGTACX_negctrl_site450] | 8.29 ± 0.27
AATACAATATAGTGAAAAATAATTAAATACAATAAG [XGTACX_negctrl_site161] | 7.87 ± 0.45
CGTAAACAATTATGATGTACATAAAATATATATATA [XGTACX_site2705] | 8.93 ± 0.014
TTATTTACATCAAGTACATGCAGTAAAAAAAAAAAA [TGCATGCA_site351] | 8.34 ± 0.5
CACCAATTCCTATGCACACACATCTGCATATTATAT [CACACA_site5049] | 9.14 ± 0.23
ACAAAACGAACATACGCATGTGTGTACATTAATATA [TGCATGCA_site922] | 8.14 ± 0.099
ATGAACAGTTCATGTTGTACAATCTCCATTTTTTAC [XGTACX_site3933] | 7.98 ± 0.65
